Screen size: about 16,000 compounds; about 120 (0.75%) were called active. About 4% were inconclusive and are not listed. The call rests on the fitted dose curve; in most records, active means well fitted inhibition curve with a large enough effect; inconclusive means small, poorly fitted or top-dose-only effect; inactive means no such curve, though single readings can be large or run the other way. The list shows a part of the results.

These results are taken from PubChem BioAssay AID1645882 (National Center for Advancing Translational Sciences (NCATS), 2021).

The target in this assay is Rap guanine nucleotide exchange factor 3 (Homo sapiens) (UniProt O95398). The assay is described as follows: Validation qHTS for antagonist of cAMP-regulated guanine nucleotide exchange factor 3 (EPAC1). Further: nearly all actives have a fitted effect of over 75% in size. To be noted: EPAC1 Rap1B-BODIPY-GDP exchange, fluorescence; series mostly up to 150 µM; activity change, negative = inhibition: at the top concentration. From the text: Assay Provider (PI): Xiaodong Cheng Ph.D.
UniProt O95398, sequence (O95398 whole entry, looked up): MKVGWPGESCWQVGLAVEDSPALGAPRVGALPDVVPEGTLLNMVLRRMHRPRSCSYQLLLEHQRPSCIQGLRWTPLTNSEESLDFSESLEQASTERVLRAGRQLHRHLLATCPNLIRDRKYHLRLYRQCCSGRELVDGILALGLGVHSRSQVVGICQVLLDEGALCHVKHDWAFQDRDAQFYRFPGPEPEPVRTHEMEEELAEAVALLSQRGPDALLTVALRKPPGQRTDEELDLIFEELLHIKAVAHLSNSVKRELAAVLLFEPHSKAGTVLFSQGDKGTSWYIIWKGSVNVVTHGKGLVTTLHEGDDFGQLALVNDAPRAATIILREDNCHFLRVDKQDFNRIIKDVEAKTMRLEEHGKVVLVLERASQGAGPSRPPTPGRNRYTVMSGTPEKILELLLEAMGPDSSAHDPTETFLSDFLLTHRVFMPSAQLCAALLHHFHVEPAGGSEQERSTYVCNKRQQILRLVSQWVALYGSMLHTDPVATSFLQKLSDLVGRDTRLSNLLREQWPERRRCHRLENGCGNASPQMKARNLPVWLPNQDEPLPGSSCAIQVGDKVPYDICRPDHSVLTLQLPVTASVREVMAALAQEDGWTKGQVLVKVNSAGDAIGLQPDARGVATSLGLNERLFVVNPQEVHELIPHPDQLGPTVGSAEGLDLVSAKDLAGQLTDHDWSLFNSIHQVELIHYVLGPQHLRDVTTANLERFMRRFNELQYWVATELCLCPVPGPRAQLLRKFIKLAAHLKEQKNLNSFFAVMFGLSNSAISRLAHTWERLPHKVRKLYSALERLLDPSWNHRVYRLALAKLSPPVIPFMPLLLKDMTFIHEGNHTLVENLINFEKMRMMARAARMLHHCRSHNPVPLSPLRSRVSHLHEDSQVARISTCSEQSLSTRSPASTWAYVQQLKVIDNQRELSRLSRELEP
The University of Texas Medical Branch, […], TX
In multi-cellular eukaryotic organisms, the effects of cAMP are transduced by two ubiquitously-expressed intracellular cAMP receptors, the classic protein kinase A/cAMP-dependent protein kinase (PKA/cAPK) and the more recently discovered exchange protein directly activated by cAMP/cAMP-regulated guanine nucleotide exchange factor (EPAC/cAMP-GEF). Both PKA and EPAC are ubiquitously expressed in all tissues, and an increase in intracellular cAMP levels will lead to the activation of both PKA and EPAC. Therefore, careful dissections of the individual role and relative contribution of EPAC and PKA within the overall cAMP signaling in various model systems are critical for further elucidating the mechanism of cAMP signaling. To date no EPAC-specific antagonists and agonist, as well as isoform-specific agonists have been reported, and developing EPAC-specific pharmacological probes to determine the physiological functions that EPAC play in the overall cAMP-mediated signaling remains a major challenge within the research field. Furthermore, identified regulators of EPAC may lead to new mechanism-based therapeutic strategies specifically targeting the EPAC / cAMP-signaling components as EPAC has been implicated to play important roles in major human pathological conditions such as diabetes, heart disease, and cancer.
This qHTS will be used to screen the Molecular Libraries Small Molecule Repository (MLSMR) as a concentration-titration series using the NCGC unique quantitative screening (qHTS) platform to find activators for EPAC1. In addition, this assay will also be used as a counterscreen for the EPAC2 qHTS. This fluorescent based assay is developed and validated for EPAC1 that measures exchange using EPAC effector Rap1 complex with BODIPY-GDP, a GDP analog with a tethered fluorophores. Activators are identified by monitoring the change in fluorescence signal as the exchanged free BODIPY-GDP has a reduced fluorescence compared to Rap1-bound BODIPY-GDP. Increase in signal (activation) is the desired outcome for the EPAC1 agonist while no activity in this assay is desired for the EPAC2 agonist counterscreen.
[1] de Rooij, J., Zwartkruis, F. J., Verheijen, M. H., Cool, R. H., Nijman, S. M., Wittinghofer, A., and Bos, J.L. (1998) Nature 396, 474-477.
Briefly, three uL of reagents (100 nM EPAC1, 250 nM RAP1B-BODIPY-GDP, 50 uM GDP) were dispensed into a 1536-well Greiner black solid-bottom medium binding assay plate. Controls and test compounds (23 nL) were transferred to the plate via a Kalypsys pin tool equipped with a 1536-pin array. The plates were centrifuged at 1,000 rpm for 15 seconds followed by 5 minute incubation at room temperature. The assay plates were read at 5 minute intervals for 30 minutes in the ViewLux plate reader using 480nm excitation and 540nm emission filters. The results were normalized to the […] positive control ATA and DMSO.
(In qHTS, concentration-response curves come from the screen itself.)
In the case of `Cc1ccc2cc3c(ccc4ccccc43)c3c2c1CC3`, the “activity change, negative = inhibition” value was inactive: 24.2%. Consider `O=C(Nc1cccc(F)c1)N1CC2(CCNCC2)C1`, for which the “activity change, negative = inhibition” value is inactive: 5.21%.

Consider `OCCOc1ccccc1`, for which the activity change, negative = inhibition entry is “inactive”. As for `CCN1C[C@@]2(C)CC[C@@H](OC)[C@@]34C2C(O)[C@@]2(OCO[C@]25CC(OC)C2C[C@@]3(O)C5C2O)C14` (stereo not given in full), the “activity change, negative = inhibition” value was inactive: 109%. With `ClC1C(Cl)C(Cl)C(Cl)C(Cl)C1Cl` (stereo not given), the activity change, negative = inhibition entry was “inactive”. For `O=C(CN1CCCC2CCCCC21)c1ccc(I)cc1` (stereo not given), the “activity change, negative = inhibition” value is inactive: 10.8%. With `CCCCC[C@@H](/C=C/C=C\C/C=C\C/C=C\CCCC(=O)O)OO`, the activity change, negative = inhibition was inactive: 7.56% [at 1.57 µM]. As for `CN1CCC2(CC1)CCN(C(=O)Oc1ccccc1)CC2`, the “activity change, negative = inhibition” value is inactive: 11.3%. Turning to `O=c1n(Cl)c(=O)n(Cl)c(=O)n1Cl`, the “activity change, negative = inhibition” value was inactive: 17.9%.

Turning to `C[C@@H]1O[C@H](C[N+](C)(C)C)C[C@H]1O`, the “activity change, negative = inhibition” value was inactive: -3.32% [at 75.8 µM]. The entry for `CP(=O)(O)C1=CCNCC1` is “inactive”; for `Cn1cc(C2=C(c3cn(C4CCN(Cc5ccccn5)CC4)c4ccccc34)C(=O)NC2=O)c2ccccc21` it is inactive: 26.7%; for `NC(=O)c1cc(N2CC2)c([N+](=O)[O-])cc1[N+](=O)[O-]` it is inactive: -0.147% [at 75.8 µM].

On to `O=[N+]([O-])c1ccc(F)c([N+](=O)[O-])c1`, for which the “activity change, negative = inhibition” value was inactive: 2.44%. Take `COC(=O)C1=CO[C@@H](C)[C@@H]2CN3CCc4c([nH]c5cc(OC)ccc45)[C@@H]3C[C@H]12`: the “activity change, negative = inhibition” value is inactive: 15.7%. For `C[C@]12CCC(=O)C=C1C=C[C@@H]1[C@@H]2CC[C@@]2(C)[C@H]1CC[C@@]2(O)CCC(=O)O`, the “activity change, negative = inhibition” value was inactive: 16.8% [at 75.8 µM].

Regarding `[Cl-].[Cl-].[Hg+2]`, the “activity change, negative = inhibition” value is inactive: -16.6%.

On to `S=C(S)N1CCNCC1`, for which the “activity change, negative = inhibition” value was inactive: -1.56%. Regarding `C[C@]12N[C@@H](Cc3ccccc31)c1ccccc12`, the activity change, negative = inhibition result is “inactive”.

Turning to `NC(=O)CI`, the “activity change, negative = inhibition” value is inactive: 12.5% [at 75.8 µM]. Regarding `CN1CCC(O)(c2ccc(F)cc2)C(C(=O)c2ccc(F)cc2)C1` (stereo not given), the “activity change, negative = inhibition” value is inactive: 13.9%. The figure for `CCOP(=S)(OCC)SCn1c(=O)oc2cc(Cl)ccc21` is inactive: -29.5%; for `Cc1cccc(C)c1NC(=O)CN1CCCC1=O` it is inactive: 3.17% [at 75.8 µM]; for `CS(=O)(=O)Nc1ccc(Cc2noc(-c3ccc4[nH]cc(CCN)c4c3)n2)cc1` it is “inactive”. Take `CC(C)C[C@H]1C(=O)N2CCCC2[C@]2(O)O[C@](NC(=O)[C@@H]3C=C4c5cccc6[nH]cc(c56)CC4N(C)C3)(C(C)C)C(=O)N12` (stereo not given in full): the activity change, negative = inhibition entry was “inactive”. `c1ccc(N2CCCC3(CCNCC3)C2)nc1`: the “activity change, negative = inhibition” value was inactive: 24.6%. As for `O=C(O)COc1ccc(Cl)cc1Cl`, the “activity change, negative = inhibition” value was inactive: 5.04%. Take `CC(C)C[C@H](NC(=O)[C@H](Cc1ccccc1)NC(=O)CNC(=O)[C@H](CO)NC(=O)[C@@H](N)Cc1ccc(O)cc1)C(=O)N[C@H](C(=O)O)[C@H](C)O`: the activity change, negative = inhibition was inactive: -6.92% [at 15.3 µM].

As to `CCNc1nc(Cl)nc(NCC)n1`, the “activity change, negative = inhibition” value was inactive: -18.5%. The same measure for `c1ccc2sc(C3(NCC4CC4)CCCCC3)cc2c1`: inactive: 4.45%; for `C=CCC1=C(C)C(OC(=O)C2C(C=C(C)C)C2(C)C)CC1=O` (stereo not given): inactive: -16.6% [at 320 µM].

Consider `CCC1(c2ccccc2)C(=O)NC(=O)NC1=O`, for which the “activity change, negative = inhibition” value was inactive: 4%. For the compound `COc1ccc2[nH]c3c(c2c1)CCNC3`, the “activity change, negative = inhibition” value is inactive: 6.47% [at 75.8 µM].

`N#CC(C#N)=Cc1ccc(O)c(O)c1`: the activity change, negative = inhibition result was “inactive”. For `O=C(Nc1ccccc1)N1CCCC2(CCN(C(=O)Oc3ccccc3)CC2)C1`, the “activity change, negative = inhibition” value is inactive: -3.17%.

`C[C@H](NC(=O)[C@@H](N)Cc1ccc(O)cc1)C(=O)N[C@@H](Cc1ccccc1)C(=O)NCC(=O)N[C@@H](Cc1ccc(O)cc1)C(=O)N1CCC[C@H]1C(=O)N[C@@H](CO)C(N)=O`: the activity change, negative = inhibition is inactive: 14.2% [at 15.3 µM]. On to `CCCCNC(C)(C)[P+](=O)O`, for which the “activity change, negative = inhibition” value was inactive: 43.1%.

On to `CC(C)(C)NC[C@H](O)COc1cccc2[nH]c(C#N)cc12`, for which the “activity change, negative = inhibition” value is inactive: 25.1%. The same measure for `CC(C)C(Br)C(=O)NC(N)=O` (stereo not given): inactive: 3.14%. On to `COP(=O)(OC)OC=C(Cl)Cl`, for which the “activity change, negative = inhibition” value is inactive: 24.2%.

Turning to `COCC(=O)N1CCC2(CCCN(Cc3ccncc3)C2)CC1`, the “activity change, negative = inhibition” value is inactive: 4.19%.

As for `CCCN1CCc2cc(O)cc3c2C1Cc1ccc(O)c(O)c1-3` (stereo not given), the “activity change, negative = inhibition” value was inactive: 20.9%.

As to `S=C=NCc1ccccc1`, the “activity change, negative = inhibition” value is inactive: 11.3%.

On to `O=[N+]([O-])C(Br)(CO)CO`, for which the “activity change, negative = inhibition” value was inactive: 5.33%. The figure for `ClC(Cl)=C(c1ccc(Cl)cc1)c1ccc(Cl)cc1` is inactive: 12.1%; for `CCOC(=O)C1C(C=C(C)C)C1(C)C` (stereo not given) it is inactive: -7.22%. Consider `CCCCC/C=C\C/C=C\C/C=C\C=C\[C@H](CCCC(=O)O)OO`, for which the activity change, negative = inhibition is inactive: 16.4% [at 1.57 µM]. On to `Oc1ccc2c3c1OC1C(O)CC[C@]4(O)C(C2)N(CC2CCC2)CC[C@]314` (stereo not given in full), for which the “activity change, negative = inhibition” value is inactive: 279%. The entry for `C[N+](C)(C)CCOC(=O)CBr` is “inactive”.

For `Cc1sc2ccccc2c1CC1=NCCN1`, the “activity change, negative = inhibition” value was inactive: -6.59% [at 75.8 µM]. On to `CC(=O)[C@H]1CC[C@H]2[C@@H]3CC[C@H]4C[C@](C)(O)CC[C@]4(C)[C@H]3CC[C@]12C`, for which the activity change, negative = inhibition entry was “inactive”.

With `NC1=NC(=O)C(c2ccccc2)O1` (stereo not given), the “activity change, negative = inhibition” value is inactive: 18%. For `CCOC(=O)C1(c2ccccc2)CCN(CCC(C#N)(c2ccccc2)c2ccccc2)CC1`, the activity change, negative = inhibition entry was “inactive”. The entry for `CN(C)CCc1ccc(O)cc1` is “inactive”; for `CCN(CC)C(=O)N[C@@H]1C=C2c3cccc4[nH]cc(c34)C[C@@H]2N(C)C1` it is inactive: 23.6%. Take `C/C=C1/CN2CC[C@]34C(=C(C=O)[C@@H]1C[C@H]23)Nc1c(O)cccc14`: the “activity change, negative = inhibition” value is inactive: 21.4%. With `COc1cc(CC(C)N)c(OC)cc1I` (stereo not given), the “activity change, negative = inhibition” value is inactive: -5.7% [at 75.8 µM]. As for `CN1CCN(c2ncc3ncc(=O)n(C)c3n2)CC1`, the “activity change, negative = inhibition” value is inactive: 13%. `O=C(O)C1=CCCN(CCOC(c2ccc(C(F)(F)F)cc2)c2ccc(C(F)(F)F)cc2)C1`: the “activity change, negative = inhibition” value was inactive: -21.4%. `CCCCC/C=C\C/C=C\CCCCCCCC(=O)NCCO`: the activity change, negative = inhibition was inactive: -13.9% [at 15.3 µM]. The entry for `O=C(CCl)c1ccc(Cl)cc1Cl` is “inactive”; for `C#C[C@]1(O)CC[C@H]2[C@@H]3CCC4=CC(=O)CCC4=C3C=C[C@@]21CC` it is inactive: 15.8%. As for `CCC1(c2ccccc2)C(=O)N(COC)C(=O)N(COC)C1=O`, the “activity change, negative = inhibition” value is inactive: 12.4%. `O=C1/C(=C\c2ccccc2)C[C@@]2(O)[C@H]3Cc4ccc(O)c5c4[C@@]2(CCN3CC2CC2)[C@@H]1O5`: the “activity change, negative = inhibition” value was inactive: -10.4%.

On to `N[C@@H]1C[C@H]1c1ccccc1`, for which the “activity change, negative = inhibition” value was inactive: 10.1%.

As to `CC(C)NCC(O)c1ccc([N+](=O)[O-])cc1` (stereo not given), the “activity change, negative = inhibition” value was inactive: 37.2%. In the case of `CCC(Sc1ccccc1)C(=O)OC1CC2CCC(C1)N2C` (stereo not given), the “activity change, negative = inhibition” value is inactive: 7.81%. The same measure for `COC(=O)[C@]1(C)CC[C@@]2(C)CC[C@@]3(C)C4=CC=C5C(=CC(=O)C(O)=C5C)[C@@]4(C)CC[C@@]3(C)C2C1` (stereo not given in full): inactive: 16.5%; for `C[C@H](N)Cc1c[nH]c2ccc(O)cc12`: inactive: 5.6%; for `CN1C[C@H](C(=O)N[C@]2(C)O[C@@]3(O)[C@@H]4CCCN4C(=O)[C@H](Cc4ccccc4)N3C2=O)C=C2c3cccc4[nH]cc(c34)C[C@H]21`: inactive: 25.1%.
